Several values for one entry are separate records, joined by “and”; a condition that tells them apart may be missing. Equal values may be shown once. Screen size: about 48,000 compounds; about 1,200 (2.5%) were called active. Inconclusive results (about 2%) are left out.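 Rule for the calls: active = activation of at least 60% and not above a set upper limit (about 1 call in 100 departs from these limits); inconclusive = activation of 40% to 60%, or above that upper limit; inactive = activation under 40%.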 The list shows a part of the results.

UniProt O75388, sequence (O75388 whole entry, looked up): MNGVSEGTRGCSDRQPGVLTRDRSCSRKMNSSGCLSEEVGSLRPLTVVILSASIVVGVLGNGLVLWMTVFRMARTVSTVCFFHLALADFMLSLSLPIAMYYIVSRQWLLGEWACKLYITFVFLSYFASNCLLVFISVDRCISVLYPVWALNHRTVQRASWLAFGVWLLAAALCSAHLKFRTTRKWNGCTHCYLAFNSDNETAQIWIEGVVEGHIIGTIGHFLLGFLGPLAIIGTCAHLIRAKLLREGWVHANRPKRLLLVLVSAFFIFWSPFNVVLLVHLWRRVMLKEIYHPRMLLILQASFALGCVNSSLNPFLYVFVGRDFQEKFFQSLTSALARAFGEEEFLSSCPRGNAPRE

The experiment concerns the target Probable G-protein coupled receptor 32 (Homo sapiens) (UniProt O75388). The experiment is described as follows: qHTS for Agonists of Human Resolvin D1 Receptor DRV1. Note: 0% is about no effect. The conditions noted are these: CHO-K1 GPR32 beta-arrestin PathHunter luminescence, 90 min; at 76.9 µM; active compounds read high; zero percent set by DMSO-only wells. The procedure, abridged:
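Readings come from a cell-based beta-arrestin complementation format: CHO-K1 GPR32 stable cells (2,500/well) treated 90 min with compounds, then beta-Gal substrate added for 1 h before chemiluminescence imaging.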
Turning to `COc1ccccc1-c1noc(-c2ccc(N3CCN(C)CC3)c([N+](=O)[O-])c2)n1`, the activation is inactive: 0%. The same measure for `Cc1ccc(-c2ccc(=O)n(CC(=O)NCCc3ccc(Cl)cc3)n2)cc1`: inactive: -16%; for `CCCOc1ccc(CNC(=O)c2ccc3c(c2)N(Cc2ccccc2)CCS3)cc1`: inactive: -14.9%; for `COC(=O)C(CCSC)NC(=O)Cn1ncc2c([nH]c3ccccc32)c1=O` (stereo not given): inactive: -5.36%. For the compound `COc1ccc(NC(=O)c2c(NCc3cccs3)sc3c2CCCC3)c(OC)c1`, the activation is inactive: -27.5%. For the compound `COc1cccc2c1cc1c(=O)n(CC(=O)N3CCN(c4cccc(Cl)c4)CC3)nc(C)n12`, the activation was inactive: -3.17%. The same measure for `O=C(OCc1cc(=O)n2nc(-c3cccs3)sc2n1)c1ccccc1`: inactive: -0.717%; for `CC(=O)n1nc(-c2cccnc2)nc1NCc1ccc(F)cc1`: inactive: -2.8%; for `O=C(c1ccc(Cl)cc1)N1CCC(c2nc3ccccc3o2)CC1`: inactive: -7.55%. The same measure for `O=C1c2oc3ccccc3c(=O)c2C(c2ccc(O)cc2)N1Cc1ccc2c(c1)OCO2` (stereo not given): inactive: -8.49%.

With `CCn1cc(C(=O)OCC(=O)Nc2cc(OC)cc(OC)c2)c(=O)c2ccc(C)nc21`, the activation is inactive: -9.93%. As to `Cc1ccc(CNC(=O)CN2C(=O)CSc3ccc(S(=O)(=O)N(C)C)cc32)cc1`, the activation was inactive: 14%. Under `CCOc1ccc(NC(=O)c2c(NCc3ccc(C)o3)sc3c2CCCCC3)cc1` stands inactive: -19.5%; under `COc1ccc(OC)c(CCNC(=O)Cn2ccc3cc(S(=O)(=O)N4CCCCC4)ccc32)c1`, inactive: 0.0291%.

As to `CCCC(CCC)C(=O)O`, the activation was inactive: -15.2% and inactive: -5.38%. The same measure for `CC(C)[N+](C)(C)CC(O)COc1cccc2ccccc12` (stereo not given): inactive: 5.64%; for `COc1ccc(OC)c(-c2noc(N3CCN(c4cc(C)ccc4C)CC3)n2)c1`: inactive: 1.04%. Under `Cc1ccc(C)c(CNC(=O)c2ccc3c(c2)nc2n3CCC(C)C2)c1` (stereo not given) stands inactive: -14.2%; under `Cc1ccc(N(C)S(=O)(=O)c2nnc(NC(=O)CC(C)C)s2)cc1`, inactive: -10.1%; under `COc1ccccc1-c1cc2nc(C)c(CCC(=O)NCCc3ccc(SC)cc3)c(C)n2n1`, inactive: -15.5%. Under `CCOC(=O)c1cc(OC(=O)c2ccc(OC)cc2)n(-c2ccccc2)n1` stands inactive: 6%.

In the case of `COc1ccc(NC(=O)C(Cc2ccccc2)NS(=O)(=O)c2ccc3c(c2)CCN3C(C)=O)cc1` (stereo not given), the activation was inactive: -12%. Under `CCCn1c(=N)c(C(=O)NCc2cccnc2)cc2c(=O)n3ccccc3nc21` stands inactive: 39.9%. The same measure for `CN(C)CCCC1(c2ccc(F)cc2)OCc2cc(C#N)ccc21` (stereo not given): inactive: 0.401%; for `Nn1nnc2ccccc21`: inactive: 1.4%.

In the case of `CCOC(=O)Cc1ccc(NC(=O)Nc2cc3c(cc2N2CCCCC2)n(C)c(=O)n3C)cc1`, the activation was inactive: 19%. Consider `O=C(Nc1ccc(F)cc1F)c1ccc2c(c1)CCN2S(=O)(=O)c1ccc(Cl)cc1`, for which the activation was inactive: -7.81%. On to `COc1ccc(-n2cc(C(=O)Nc3cc(F)ccc3F)c3ccccc3c2=O)cc1`, for which the activation was inactive: -25.3%. The same measure for `CCOC(=O)c1cc2c(=O)n3ccccc3nc2n(C)c1=NC(=O)c1c(-c2ccccc2Cl)noc1C`: inactive: 1.27%.

`Cc1ccc(NC(=O)Cn2c(=O)ccc3cc(S(=O)(=O)N4CCC(C)CC4)ccc32)c(C)c1`: the activation was inactive: -2.3%. For the compound `COCCCNC(=O)C1CCC(CNS(=O)(=O)c2ccc(OC)cc2)CC1` (stereo not given), the activation was inactive: -7.55%. Under `CCCCOC(=O)c1ccc(NC(=O)CC2NCCNC2=O)cc1` (stereo not given) stands inactive: -6.26%; under `CCOc1ccc(CNC(=O)Cn2ccc3cc(S(=O)(=O)N4CCCCCC4)ccc32)cc1`, inactive: 23.4%; under `COc1ccc2oc(=O)c(C(=O)Nc3cccc(C(=O)O)c3)cc2c1`, inactive: -2.49%. The same measure for `COc1cccc(CNC(=O)C2CCN(Cc3cc4ccccc4n3Cc3ccc(C)cc3)CC2)c1`: inactive: -9.35%; for `COc1cc(-c2cc3n(C)c(C)c(CCC(=O)NCc4ccccc4)c(=O)n3n2)cc(OC)c1OC`: inactive: -17.7%; for `Cc1ccc2occ(CC(=O)Nc3ccc(S(=O)(=O)N4CCCC(C)C4)cc3)c2c1` (stereo not given): inactive: -4.36%. The same measure for `Cc1ccccc1Cn1nnc2c(=O)[nH]c(C3CCN(C(=O)c4ccccc4Cl)CC3)nc21`: inactive: -18.6%; for `COc1ccc(NC(=O)C2CCN(C(=O)N3CCOc4ccccc43)CC2)cc1`: inactive: 2.5%.

`COc1ccc(NC(=O)CN2C(=O)CSc3ccc(S(=O)(=O)N(C)C)cc32)cc1Cl`: the activation was inactive: 5.24%. Under `O=C(Nc1ccc(Cl)c(C(F)(F)F)c1)c1ccc2c(c1)CCN2S(=O)(=O)c1ccccc1` stands inactive: -4.56%; under `COc1ccc(CNC(=O)CCCn2c(=O)c3cccn3c3ccc(F)cc32)cc1OC`, inactive: -14.2%; under `Cc1ccc(-n2ncc(C(=O)NCc3ccccn3)c2C2CCN(C(=O)OC(C)(C)C)CC2)c(C)c1`, inactive: 19.8%.

Turning to `O=c1c2cc3c(cc2n(Cc2ccccc2)c(=O)n1Cc1nc(-c2ccccc2)no1)OCO3`, the activation was inactive: 10.4%. Consider `COc1ccc(-c2noc(N3CCC(C(=O)Nc4ccc(OC)c(OC)c4)CC3)n2)cc1`, for which the activation was inactive: -0.373%.

In the case of `COCCCNC(=O)C(C)n1c2ccccc2c2cnn(C)c(=O)c21` (stereo not given), the activation was inactive: 0.249%. The same measure for `CCC1CN(C(=O)NCc2ccccc2)c2cc(C)ccc2O1` (stereo not given): inactive: -32.5%; for `COc1ccc(NC(=O)N2CCN(S(=O)(=O)c3ccc4c(ccn4C)c3)CC2)cc1OC`: inactive: 12.1%; for `Cc1cccc(C)c1NC(=O)CN(Cc1ccc(Br)cc1)S(=O)(=O)c1ccccc1`: inactive: -3.31%. The same measure for `COc1ccc(Br)cc1CNC(=O)c1cc(=O)[nH]c2ccc(S(=O)(=O)N3CCCCC3)cc12`: inactive: -5.68%. The same measure for `CCCSc1nc(-c2ccc(OC)cc2)cc(-c2ccccc2OC)c1C#N`: inactive: -16.4%. For the compound `CN(C)c1ccc(C(CNC(=O)c2cccc(C(F)(F)F)c2)N2CCCC2)cc1` (stereo not given), the activation is inactive: -19.3%.

In the case of `COc1ccc(Cl)cc1Nc1cc(C)nc2nc(-c3ccccc3C)nn12`, the activation was inactive: 1.5%. The same measure for `CCCCCCCC/C=C\CCCCCCCCN`: inactive: 14.4%; for `CCOc1ccc(NC(=O)C2CCN(S(=O)(=O)c3c(C)noc3/C=C/c3c(C)cc(C)cc3C)CC2)cc1`: inactive: -13.4%. The same measure for `Cc1ccc(CNc2ncnc3c2c(-c2ccccc2)cn3-c2ccccc2)cc1`: inactive: -13.7%; for `CCCC(=O)Nc1cccc(-c2cn3cccnc3n2)c1`: inactive: 13.1%. The same measure for `CCOC(=O)c1ccc(NS(=O)(=O)c2ccc3c(c2)OCCO3)cc1`: inactive: 31.3%; for `CN(C)[C@@H](CCOc1cccc2ccccc12)c1ccccc1`: inactive: 3.64%; for `Cc1cc(C)cc(NC(=O)c2oc3ccc4c(c3c2C)C(=O)CC(C)(C)O4)c1`: inactive: 10.3%. In the case of `COc1ccc2c(c1)c1c(c(=O)n(Cc3ccccc3)c(=O)n1CC(=O)NCc1ccc(C)cc1)n2C`, the activation is inactive: 19.3%.

For the compound `O=C(O)CNC(=O)C(CS)Cc1ccccc1` (stereo not given), the activation was inactive: 0.609%. In the case of `O=C(NCc1ccc(F)cc1)C1CCCCN1S(=O)(=O)c1ccc(F)cc1` (stereo not given), the activation is inactive: -4.43%.

For `CSc1ccc(C(=O)Nc2ccc(-c3nc4ccccc4s3)c(O)c2)cc1`, the activation was inactive: -5.62%. The same measure for `CCC(=O)N1CCc2cc(S(=O)(=O)CCC(=O)N3CCN(c4cccc(Cl)c4)CC3)ccc21`: inactive: 41.9%. In the case of `Cc1ccc(C)c(N2CCN(C(=O)c3ccc(Nc4nc5ccccc5n5nnnc45)cc3)CC2)c1`, the activation was inactive: -6.5%. The same measure for `COc1ccc(N2CCN(C(=O)CCC(=O)NNc3nc4ccccc4c4nc(C)nn34)CC2)cc1`: inactive: -14.4%; for `N=c1n(CCN2CCCCC2)c2ccccc2n1CC(O)COc1ccccc1` (stereo not given): active: 65.4%; for `Cc1ccc(OCc2nnc(SCC(=O)Nc3ccccc3C(C)C)o2)cc1`: inactive: 4.31%. On to `CSc1ccc(-c2nc3c(C)cccn3c2Nc2ccc3c(c2)OCCO3)cc1`, for which the activation is inactive: -20.5%. On to `COc1cc(OC)c(NC(=O)Cn2c(=O)cc(C)c3c(C)nn(-c4ccc(C)cc4)c32)cc1Cl`, for which the activation was inactive: -6.4%.

Regarding `CCOC(=O)c1cc(C)n(CC2CCC(C(=O)Nc3ccc(C)cc3)CC2)c1C` (stereo not given), the activation was inactive: -7.72%. The same measure for `CCc1ccc(NC(=O)c2ccc3nc(C(C)C)oc3c2)cc1`: inactive: 21.8%; for `CCNC(=O)c1ccc(CSc2nc3cccnc3n2Cc2ccc(OC)cc2)cc1`: inactive: 4.87%; for `CCOC(=O)N1CCC2(CC1)OC(=O)C(C)=C2C(=O)NCc1ccc(C)cc1`: inactive: -3.91%.

Regarding `COC(=O)Cn1ccc2cc(S(=O)(=O)N3CCCCCC3)ccc21`, the activation is inactive: 19.1%.

Regarding `CCC1CCc2nc3sc(C(=O)Nc4ccc(C)cc4C)c(N)c3cc2C1` (stereo not given), the activation was active: 68.6%. The same measure for `CCN(C(=O)CN1C(=O)COc2ccc(S(=O)(=O)N3CCOCC3)cc21)c1cccc(C)c1`: inactive: -5.54%; for `Cc1cccc(-c2nc(CN3CCCC(C(=O)NCc4ccc(Cl)cc4)C3)c(C)o2)c1` (stereo not given): inactive: 14.7%. For `Cc1nn(CC(=O)N2CCC(C)CC2)c(=O)c2cc3occc3n12`, the activation was inactive: -9.46%. Turning to `CCc1nn(-c2ccccc2)c2nc(-c3ccc(O)cc3)c3cc(OC)c(OC)cc3c12`, the activation is inactive: 14.5%.

Take `CCCc1cnc2c(c1SCC(=O)Nc1c(C)cc(C)cc1C)c(=O)n(C)c(=O)n2C`: the activation is inactive: 4.99%. On to `COC(=O)c1ccc(NC(=O)Cn2c(-c3nonc3N)nc3ccccc32)cc1`, for which the activation is inactive: -3.17%. Consider `Cc1ccc(Cn2c(CCCNC(=O)c3ccco3)nc3ccccc32)cc1`, for which the activation is inactive: 23.8%. Regarding `Cc1ccc(CNC(=O)CCCN2C(=O)CCn3nc(-c4cn(C)c5ccccc45)cc32)cc1`, the activation is inactive: 16.2%.

For the origin of these results see PubChem BioAssay AID1346428 (National Center for Advancing Translational Sciences (NCATS), 2018).
